Source: article PMC4336329 (PLoS ONE, 2015)
Screen size: about 310,000 compounds; about 2,200 (0.71%) showed an effect of 50% or more. The effect is printed as a negative number. This is one part of the list.

Target: human ether-à-go-go-related gene (hERG) potassium channel (human, UniProt Q12809)
Test: primary screen, population patch clamp on CHO cells stably expressing hERG

Chain of human ether-à-go-go-related gene (hERG) potassium channel (Q12809 whole entry, looked up): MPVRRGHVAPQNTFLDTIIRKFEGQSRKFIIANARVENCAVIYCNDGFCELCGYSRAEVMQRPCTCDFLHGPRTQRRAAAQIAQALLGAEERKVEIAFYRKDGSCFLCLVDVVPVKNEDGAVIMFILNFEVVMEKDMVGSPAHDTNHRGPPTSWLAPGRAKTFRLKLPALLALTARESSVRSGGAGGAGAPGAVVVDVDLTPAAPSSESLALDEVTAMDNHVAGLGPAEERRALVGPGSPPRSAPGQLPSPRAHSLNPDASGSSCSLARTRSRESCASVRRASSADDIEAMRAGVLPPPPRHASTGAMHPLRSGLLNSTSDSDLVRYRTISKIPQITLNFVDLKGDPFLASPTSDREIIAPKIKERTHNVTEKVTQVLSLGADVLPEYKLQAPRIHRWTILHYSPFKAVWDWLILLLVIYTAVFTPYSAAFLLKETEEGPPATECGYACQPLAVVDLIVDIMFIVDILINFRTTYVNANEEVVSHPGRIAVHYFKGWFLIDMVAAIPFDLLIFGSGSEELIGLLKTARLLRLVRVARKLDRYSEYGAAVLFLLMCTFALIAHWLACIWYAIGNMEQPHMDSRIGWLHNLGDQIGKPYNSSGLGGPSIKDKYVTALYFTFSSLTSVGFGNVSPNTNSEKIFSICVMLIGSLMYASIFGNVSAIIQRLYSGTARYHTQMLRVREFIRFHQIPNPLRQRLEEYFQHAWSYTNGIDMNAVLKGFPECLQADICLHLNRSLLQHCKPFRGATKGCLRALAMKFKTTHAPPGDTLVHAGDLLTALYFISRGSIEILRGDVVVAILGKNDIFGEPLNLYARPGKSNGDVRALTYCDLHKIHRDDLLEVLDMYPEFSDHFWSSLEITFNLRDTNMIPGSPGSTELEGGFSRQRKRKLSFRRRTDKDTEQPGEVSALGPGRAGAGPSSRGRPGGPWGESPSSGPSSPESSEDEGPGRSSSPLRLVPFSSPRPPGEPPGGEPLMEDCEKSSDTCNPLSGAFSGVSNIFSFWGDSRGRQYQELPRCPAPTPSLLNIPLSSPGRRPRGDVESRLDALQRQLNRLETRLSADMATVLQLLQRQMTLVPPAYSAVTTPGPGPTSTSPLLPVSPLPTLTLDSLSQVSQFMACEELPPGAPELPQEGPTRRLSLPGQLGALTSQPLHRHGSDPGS

Q: For Cc1ccc(SCC(=O)Nc2oc(C)c3c(C)n[nH]c(=O)c23)cc1C, which “hERG current change (%, negative = inhibition) at 1uM” value is on record?
A: Its value is 1.81%.

Q: Which “hERG current change (%, negative = inhibition) at 1uM” value does the source give for Cc1ccc(CNC(=O)C2CCCN(S(=O)(=O)c3c(C)[nH]c(=O)[nH]c3=O)C2)cc1 (stereo not shown) here?
A: Its value is 5.72%.

Q: CCN(CC)C(=O)c1ccc2nc3ccccc3nc2c1 was tested. Which “hERG current change (%, negative = inhibition) at 1uM” value did it give?
A: The value was 8.4%.

Q: Which “hERG current change (%, negative = inhibition) at 1uM” value does the source give for COc1cc(C(=O)NNC(=O)C2CC=CCC2C(=O)O)cc(OC)c1OC (stereo not shown) here?
A: The value was 3.26%.

Q: Which “hERG current change (%, negative = inhibition) at 1uM” value does the source give for O=C(COc1ccc(S(=O)(=O)NC2CCCCC2)cc1)NCc1cccnc1 here?
A: The value was 8.73%.

Q: For Cc1cc2c(c(=O)n1C)C(Cc1ccccc1)C(C#N)=C(N)O2 (stereo not shown), which “hERG current change (%, negative = inhibition) at 1uM” value is on record?
A: The value was 9.8%.

Q: With Cc1ccc(/C=C2\SC(N3CCCC3)=NC2=O)cc1 as the molecule, how does the “hERG current change (%, negative = inhibition) at 1uM” value read?
A: Its value is 6.27%.

Q: With COc1ccccc1C(=O)Nc1ccccc1SC(=O)c1ccccc1OC as the molecule, how does the “hERG current change (%, negative = inhibition) at 1uM” value read?
A: The value was 18.2%.

Q: Cc1ccc(C(=O)N2CCN(C(=O)N3CCOCC3)CC2)cc1 was tested. Which “hERG current change (%, negative = inhibition) at 1uM” value did it give?
A: Its value is -3.75%.

Q: Cc1ccc(C)c(-n2[nH]c3c4c(ccc3c2=O)C(=O)c2ccccc2C4=O)c1 was tested. Which “hERG current change (%, negative = inhibition) at 1uM” value did it give?
A: The value was 11.4%.

Q: O=C(Cc1ccccc1)Nc1ccc(C(=O)NCC2COc3ccccc3O2)cc1 (stereo not shown) was tested. Which “hERG current change (%, negative = inhibition) at 1uM” value did it give?
A: The value was 7.24%.

Q: CC(C)Oc1cc(C(=O)NC2CCCCC2)c2ccccc2n1 was tested. Which “hERG current change (%, negative = inhibition) at 1uM” value did it give?
A: Its value is 7.21%.

Q: With Fc1cccc(-n2cc(-c3ccccc3)c3c(=S)nc[nH]c32)c1 as the molecule, how does the “hERG current change (%, negative = inhibition) at 1uM” value read?
A: Its value is 19.2%.

Q: For CCn1c(CCNC(=O)c2ccc(C)cc2)nnc1SCc1ccc(Cl)c(Cl)c1, which “hERG current change (%, negative = inhibition) at 1uM” value is on record?
A: The value was -4.81%.

Q: Which “hERG current change (%, negative = inhibition) at 1uM” value does the source give for COCCSc1nnc(NS(=O)(=O)c2ccccc2)s1 here?
A: Its value is 15.9%.

Q: With Cc1ccc(C(=O)Nc2ncc3c(Cl)cccc3n2)cc1 as the molecule, how does the “hERG current change (%, negative = inhibition) at 1uM” value read?
A: Its value is 17.4%.

Q: For Cc1cccc(-c2cc(C(=O)Nc3cccnc3)c3ccccc3n2)c1, which “hERG current change (%, negative = inhibition) at 1uM” value is on record?
A: Its value is 14.5%.

Q: O=C(NC(=S)N1CCN(C2CCCCC2)CC1)c1ccccc1 was tested. Which “hERG current change (%, negative = inhibition) at 1uM” value did it give?
A: The value was -1.19%.

Q: Which “hERG current change (%, negative = inhibition) at 1uM” value does the source give for CC(=O)Nc1ccc(NC(=O)c2cccc3c2-c2ccccc2C3=O)cc1 here?
A: The value was 9.53%.

Q: Which “hERG current change (%, negative = inhibition) at 1uM” value does the source give for O=c1[nH]c(-c2ccccc2)cnc1-c1ccccc1 here?
A: The value was 12.7%.

Q: Which “hERG current change (%, negative = inhibition) at 1uM” value does the source give for O=C1NC(=O)/C(=C/c2ccc(O)cc2)S1 here?
A: The value was 13%.

Q: Which “hERG current change (%, negative = inhibition) at 1uM” value does the source give for N#Cc1ccc(S(=O)(=O)N2CCCN(c3ccc(C(F)(F)F)cn3)CC2)cc1 here?
A: The value was -36.4%.

Q: How did the “hERG current change (%, negative = inhibition) at 1uM” value turn out when C=CCc1cccc(C=Nc2c[nH]c(=O)[nH]c2=O)c1O was run?
A: The value was 12.2%.

Q: For CCNC(=O)NC(=O)C(C)OC(=O)C1CCN(S(=O)(=O)c2ccccc2F)CC1 (stereo not shown), which “hERG current change (%, negative = inhibition) at 1uM” value is on record?
A: The value was 10%.

Q: With COc1cccc(N2C(=O)CC(Nc3ccc(N4CCOCC4)cc3)C2=O)c1 (stereo not shown) as the molecule, how does the “hERG current change (%, negative = inhibition) at 1uM” value read?
A: The value was 13.3%.

Q: Which “hERG current change (%, negative = inhibition) at 1uM” value does the source give for O=c1cc(C(F)(F)F)nc(SCc2cccc3ccccc23)[nH]1 here?
A: The value was 5.58%.

Q: With COc1ccc(OC)c(-c2cc(C(=O)N3CCc4ccccc4C3)no2)c1 as the molecule, how does the “hERG current change (%, negative = inhibition) at 1uM” value read?
A: The value was 5.48%.

Q: With CCS(=O)(=O)c1ccc2oc(Nc3ccc(OC)c(OC)c3)nc2c1 as the molecule, how does the “hERG current change (%, negative = inhibition) at 1uM” value read?
A: The value was 20.3%.

Q: How did the “hERG current change (%, negative = inhibition) at 1uM” value turn out when O=C(NCc1ccccn1)c1c(Cl)cccc1Cl was run?
A: Its value is 10.2%.

Q: Cc1cc(C(=O)NCc2ccc(F)cc2)n(-c2ccccc2)n1 was tested. Which “hERG current change (%, negative = inhibition) at 1uM” value did it give?
A: Its value is 3.62%.

Q: For Cc1ccc2[nH]c3c(N4CCOCC4)ncnc3c2c1, which “hERG current change (%, negative = inhibition) at 1uM” value is on record?
A: The value was 10.1%.

Q: Which “hERG current change (%, negative = inhibition) at 1uM” value does the source give for CC(NCc1ccc(S(N)(=O)=O)cc1)C(=O)N1CCc2ccccc21 (stereo not shown) here?
A: Its value is 4.06%.

Q: How did the “hERG current change (%, negative = inhibition) at 1uM” value turn out when CC(=O)N1CN(C2CCS(=O)(=O)C2)Cc2c1sc1c2CCCC1 (stereo not shown) was run?
A: Its value is 13.8%.

Q: O=C1C=C(c2ccc(Cl)cc2)OC2(CCCC2)O1 was tested. Which “hERG current change (%, negative = inhibition) at 1uM” value did it give?
A: Its value is 14.6%.

Q: For COC(=O)C1=C(c2cccc(OC)c2OC)C[C@@H]2CC[C@H]1N2C(=O)NCC1CC1, which “hERG current change (%, negative = inhibition) at 1uM” value is on record?
A: Its value is 1.97%.

Q: With O=C1C=C(NCCN2CCOCC2)CC(c2ccccc2)C1 (stereo not shown) as the molecule, how does the “hERG current change (%, negative = inhibition) at 1uM” value read?
A: The value was 1.92%.

Q: Cc1ccc(C(=O)Nc2nnc(CC(=O)N/N=C/c3ccc(O)c(O)c3)s2)cc1 was tested. Which “hERG current change (%, negative = inhibition) at 1uM” value did it give?
A: Its value is 12.1%.

Q: Which “hERG current change (%, negative = inhibition) at 1uM” value does the source give for OCCN1CCN(C(=S)NCCc2ccccc2)CC1 here?
A: Its value is 17.2%.

Q: With C/C(=N/O)c1cc(C(C)(C)C)c(O)c(C(C)(C)C)c1 as the molecule, how does the “hERG current change (%, negative = inhibition) at 1uM” value read?
A: Its value is 9.12%.

Q: How did the “hERG current change (%, negative = inhibition) at 1uM” value turn out when COc1ccc(S(=O)(=O)c2c(O)c3ccc(C(=O)Nc4ccccc4F)cc3[nH]c2=O)cc1 was run?
A: Its value is 9.37%.

Q: Which “hERG current change (%, negative = inhibition) at 1uM” value does the source give for COc1ccc(OC)c(S(=O)(=O)N2CCC(C(=O)Nc3cccc(C)c3C)CC2)c1 here?
A: Its value is 19.1%.

Q: Which “hERG current change (%, negative = inhibition) at 1uM” value does the source give for Cc1cccc(-c2n[nH]c(S(C)(=O)=O)c2C#N)c1 here?
A: The value was 3.02%.

Q: How did the “hERG current change (%, negative = inhibition) at 1uM” value turn out when CC(=O)c1c(C)[nH]c(C(=O)N2CCN(c3cc(Cl)ccc3C)CC2)c1C was run?
A: Its value is 14.8%.

Q: O=C(COC(=O)CNC(=O)c1ccc(Cl)cc1Cl)NC(=O)NCc1ccccc1 was tested. Which “hERG current change (%, negative = inhibition) at 1uM” value did it give?
A: Its value is 16.1%.

Q: With CCCCCCOc1ccc(N2C(=O)CC(N3CCN(CCN=CC4=C(O)CC(C)(C)CC4=O)CC3)C2=O)cc1 (stereo not shown) as the molecule, how does the “hERG current change (%, negative = inhibition) at 1uM” value read?
A: The value was 5.84%.

Q: How did the “hERG current change (%, negative = inhibition) at 1uM” value turn out when COc1ccc(Nc2nc3ccccc3c(=O)[nH]2)cc1 was run?
A: The value was 6.29%.

Q: With COc1ccc2c(c1)CC/C2=N\OC(=O)c1cccc(C)c1 as the molecule, how does the “hERG current change (%, negative = inhibition) at 1uM” value read?
A: Its value is 3.03%.

Q: With CCOC(=O)c1sc(Nc2ccc(F)cc2)nc1C as the molecule, how does the “hERG current change (%, negative = inhibition) at 1uM” value read?
A: Its value is 11.4%.

Q: How did the “hERG current change (%, negative = inhibition) at 1uM” value turn out when CCOC(=O)CC(=O)CSc1nc2c(sc(=S)n2-c2ccc(C)c(C)c2)c(=O)[nH]1 was run?
A: The value was 11.8%.

Q: Which “hERG current change (%, negative = inhibition) at 1uM” value does the source give for CCC1CCCCN1CC(=O)c1c(C)[nH]c2ccc(OC)cc12 (stereo not shown) here?
A: Its value is -5.25%.

Q: C=CCNC(=O)c1cc2cccc(OC)c2oc1=O was tested. Which “hERG current change (%, negative = inhibition) at 1uM” value did it give?
A: Its value is 15.6%.

Q: Which “hERG current change (%, negative = inhibition) at 1uM” value does the source give for C/C(=N\Nc1nc2ccccc2nc1C)c1ccccc1O here?
A: Its value is 3.65%.

Q: How did the “hERG current change (%, negative = inhibition) at 1uM” value turn out when CSc1nc(NCc2ccco2)c2ccccc2n1 was run?
A: The value was 4.95%.

Q: For O=C(Nc1ccc(S(=O)(=O)Nc2nccs2)cc1)C1=NN(c2ccccc2)C(=O)CC1, which “hERG current change (%, negative = inhibition) at 1uM” value is on record?
A: Its value is 15%.

Q: How did the “hERG current change (%, negative = inhibition) at 1uM” value turn out when Cc1c(C(=O)N(C)C(C)c2ccncn2)oc2c(F)cccc12 (stereo not shown) was run?
A: Its value is 11.5%.

Q: COc1ccccc1N1CCN(/N=C/C(Cl)=C/c2ccccc2)CC1 was tested. Which “hERG current change (%, negative = inhibition) at 1uM” value did it give?
A: The value was 11%.

Q: For Cc1ccc(NC(=S)c2nc3ccccc3s2)cc1, which “hERG current change (%, negative = inhibition) at 1uM” value is on record?
A: Its value is 7.76%.

Q: Cc1ccc2nc(Cl)c(C3CC(c4cccs4)=NN3C(=O)CCC(=O)O)cc2c1 (stereo not shown) was tested. Which “hERG current change (%, negative = inhibition) at 1uM” value did it give?
A: The value was 19.4%.
